± gives the standard deviation. Only a part is listed here, and it is no random draw. Bounds are passed on as bounds.

The assay concerns MIWI (PIWIL1) piRISC loaded with L1MC piRNA (30 nt). As to the kind of experiment: pre-steady-state target cleavage rate (min^-1); MIWI and MILI are mouse PIWI proteins and EfPiwi is from a freshwater sponge; tags in brackets are library labels; higher = faster piRNA-guided slicing of the target. The note with it: guide: L1MC piRNA 5'p-UAACUAAAUACUAUGCAAGCUGUAGGUCCU; auxiliary factor: none (no GTSF1). The method, boiled down: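 Using HEPES–potassium acetate buffer at 33 °C, 1 nM active affinity-purified piRISC with a single synthetic guide was mixed with 0.1 nM transcribed, DNA-blocked target RNA library for 0–8 or 0–960 min, with or without 500 nM GTSF1 partner protein. Uncleaved targets were sequenced and normalised to depth and to weakly complementary targets, and three trials were pooled with k3 capped at 0.0001 min^-1. A burst-and-steady-state fit gave the pre-steady-state cleavage rate.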
Regarding UCCUGGAUGUCGAACGAUAGAUAUUAGUUA, the “pre-steady-state target cleavage rate” value was below 0.0001.

Take UCCUGGAUGUCGAACGUAUCUAUUUAGUA: the “pre-steady-state target cleavage rate” value is below 0.0001.

As for UCCUGGAUGUCGAACCAUACUAUAUAGUUA, the “pre-steady-state target cleavage rate” value was below 0.0001.

Consider UGGACCUACAGCUUUGCAUAGUAUUUAGUUA, for which the “pre-steady-state target cleavage rate” value is 0.0449 ± 0.011.

Turning to UCGACCUACAGCUUGCAUAGUAUUAUAGUUA, the “pre-steady-state target cleavage rate” value was found to be 0.0387 ± 0.007.

As to “UGGACCUACAGCUUGCAUAGUAUUUAGUUA [g2:g29:cont:t1A]”, the “pre-steady-state target cleavage rate” value was 0.0718 ± 0.013.
